# Inconclusive results, whose numbers are uncertain, are shown with a selection of clear calls. For some assays here: Potencies beside an inconclusive call are fits to weak or partial responses and may not hold up. The source made the active and inactive calls. Unless noted, the call rests on the fitted dose curve; in most records, active means well fitted curve in the direction sought with a large enough effect; inconclusive means small, poorly fitted or top-dose-only effect, or another doubt; inactive means no such curve, though single readings can be large; an effect the other way counts as inactive or inconclusive.
# Columns and labels:
# [1] = qHTS for differential inhibitors of proliferation of Plasmodium falciparum line HB3 (AID 1886); details: Potency: Plasmodium falciparum HB3 proliferation inhibition;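 further: potency means the concentration at half of the fitted maximal effect; parasites grown with compound for 72 h before SYBR Green readout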
# [2] = molecular target: Estrogen receptor (Homo sapiens) (UniProt P03372); experiment: qHTS assay for small molecule agonists of estrogen receptor alpha signaling (AID 588514; calls by dose curve;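 further: 0% = vehicle only and 100% = reference agonist; nearly all actives have a fitted effect of over 70% in size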); details: ER-alpha-UAS-bla HEK293, beta-lactamase ratio, 18 h; activation: at 76.8 µM (top of the series), percent of full estradiol response, vehicle zero
# How it was run: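 EC50 and efficacy came from Hill fits of beta-lactamase reporter signal (CCF4 dye, 2 h at room temperature) scaled between DMSO and 20 nM 17-beta-estradiol. Agonist mode: HEK293 ER-alpha-UAS-bla cells in charcoal/dextran-stripped serum medium, 18 h compound exposure at 37 C.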
# [3] = molecular target: Retinoic acid receptor RXR-alpha (Homo sapiens) (UniProt P19793); experiment: qHTS assay for small molecule antagonists of retinoid X receptor alpha signaling (AID 588546; active means well fitted inhibition curve with a large enough effect in the signal ratio, with a control signal flat, not every such curve was filed as active; inconclusive means small, poorly fitted or top-dose-only effect, or effect the other way, or a change in a side signal; inactive means no such curve, though single readings can be large or run the other way; the % refers to the signal ratio;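 further: cells stimulated with 9-cis-retinoic acid as agonist; on the % scale 0 is the no-effect control and ±100 the full control effect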); details: HEK293T RXRa-UAS-bla, beta-lactamase ratio, antagonist mode
# How it was run: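 Beta-lactamase reporter inhibition, read as CCF4 fluorescence ratio (ex 405, em 460/530 nm) after 2 h at RT. HEK293T UAS-bla cells, 2500/well, were stimulated with 9-cis-RA at 500 or 100 nM final alongside test compound for 18 h at 37 C.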
# [4] = qHTS assay for cell viability of the p53RE-bla HCT-116 cell line (AID 743292); details: p53RE-bla HCT-116 viability, ATP luminescence, 16 h; further: potency means the concentration at half of the fitted maximal effect; nearly all actives have a fitted effect of over 55% in size
# How it was run: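 Luminescent ATP quantitation (CellTiter-Glo) served as the viability read-out; reagent was added after 16 h compound exposure at 37 C and read after 30 min at room temperature. Cells: p53RE-bla HCT-116, 4,000 per well.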
# [5] = Quantitative High-Throughput drug screen in 47 multiple myeloma cell lines against the NCATS MIPE library collection: Delta47_JCRB cell viability assay (AID 1918925; further: potency means the concentration at half of the fitted maximal effect; nearly all actives have a fitted effect of over 45% in size)
# How it was run: (§1)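 CellTiter-Glo luminescence (ATP) after 48 h compound exposure, 37C/5% CO2; 500 cells/well; MIPE 4.0 approved/investigational drugs pinned in; DMSO = 100%, media only = 0% viability.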
# [6] = Quantitative High-Throughput drug screen in 47 multiple myeloma cell lines against the NCATS MIPE library collection: INA6_PLB cell viability assay (AID 1918965; further: potency means the concentration at half of the fitted maximal effect; nearly all actives have a fitted effect of over 55% in size)
# How it was run: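 CellTiter-Glo ATP luminescence gave viability after 48 h compound treatment at 37C of 500 multiple myeloma cells per well. Normalisation used DMSO-only wells as 100% and media-only wells as 0% viability; primary qHTS of approved and investigational drugs.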
# [7] = Quantitative High-Throughput drug screen in 47 multiple myeloma cell lines against the NCATS MIPE library collection: JJN3_DSMZ cell viability assay (AID 1918966; further: potency means the concentration at half of the fitted maximal effect; nearly all actives have a fitted effect of over 50% in size)
# How it was run: as §1
# [8] = Quantitative High-Throughput drug screen in 47 multiple myeloma cell lines against the NCATS MIPE library collection: MM1S_ATCC cell viability assay (AID 1918980); further: nearly all actives have a fitted effect of over 45% in size
# How it was run: (§2)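 ATP-based CellTiter-Glo luminescence after 48 h drug exposure (37 °C, 5% CO2) of 500 myeloma cells per well. DMSO-only wells set 100% viability, media-only wells 0%; MIPE 4.0 library added by pin tool.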
# [9] = Quantitative High-Throughput drug screen in 47 multiple myeloma cell lines against the NCATS MIPE library collection: PCM6_Riken cell viability assay (AID 1919870); further: potency means the concentration at half of the fitted maximal effect; nearly all actives have a fitted effect of over 30% in size
# How it was run: as §2
# [10] = Cell Viability - Hek293 (AID 427;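 active means compounds whose dose-response curve shows a full or clear partial loss of cell viability, called from curve shape rather than a numeric limit; inconclusive means weak partial curves or an effect only at the top dose; inactive means no dose-dependent loss of viability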;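 further: potency means the concentration at half of the fitted maximal effect; cells exposed to compound for 40 hours at 37 °C before reading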); details: qHTS
# How it was run: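 AC50 values derive from Hill-modelled concentration-response of ATP-based luminescence, normalized between DMSO-only and 100 uM tamoxifen controls. Cells were exposed in complete culture medium for 40 hr at 37 °C before detection.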
# [11] = Validation of Assay for Modulators of Lamin A Splicing (AID 1459; active means well fitted curve in the direction sought with a large enough effect in the signal ratio; inconclusive means small, poorly fitted or top-dose-only effect, or effect the other way, or a change in a side signal; inactive means no such curve, though single readings can be large or run the other way; the % refers to the signal ratio;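 further: cells exposed to compound for two days before reading; 0% is about no effect; ratio rise marks activators and ratio drop marks inhibitors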); details: Lamin A splicing dual RFP/GFP fluorescence reporter; Potency: ratio unless noted; ratio change, both ways: at 9.22 µM unless noted
# How it was run: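 S3 HeLa stably expressing lamin A-EGFP splicing minigene and DsRed2, 600 cells/well in Opti-MEM with 2% FBS, treated 48 h at 37C; laser-scanning cytometry gives GFP/RFP total intensity ratio; ancitabine positive control, 0.5% DMSO vehicle.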
# [12] = Cytometry Cell-Based qHTS for Inhibitors of the mTORC1 Signaling Pathway in MEF cells (AID 2668); further: potency means the concentration at half of the fitted maximal effect
# How it was run: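 MEFs (Tsc2-/-, p53-/- stably expressing WT Tsc2) treated 24 h at 37 degree Celsius, fixed, stained with Alexa-488 anti-phospho-rpS6 Ser235/236 and propidium iodide; Acumen laser scanning. Reported as % positive cells, phospho-S6 normalized to PI.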
# [13] = molecular target: DNA polymerase III PolC-type (Bacillus subtilis (strain 168)) (UniProt P13267); experiment: qHTS Validation Assay for the Inhibitors of DNA Replication in Gram-Positive Bacteria (AID 485295);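 further: PicoGreen fluorescence of double-stranded DNA made on primed circular M13 template; 0% = DMSO wells and -100% = EDTA-quenched background wells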
# How it was run: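 Reconstituted B. subtilis Pol III holoenzyme (PolC, beta clamp, SSB, primase) preincubated with compound, then M13Gori single-stranded circular template with dNTPs/NTPs added; room temperature reaction. Stopped with EDTA/PicoGreen; dsDNA fluorescence read, EDTA as full-inhibition control.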
# [14] = Quantitative high throughput screen for delayed death inhibitors of the malarial parasite plastid, 48 hour incubation (AID 488752); further: on the % scale 0 is the no-effect control and ±100 the full control effect; nearly all actives have a fitted effect of over 65% in size
# How it was run: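 One-generation (48 h) growth assay: a decrease in luciferase signal from an integrated reporter in P. falciparum-infected red cells (0.1% parasitemia, 2% hematocrit) after compound exposure at 37 C indicates parasite inhibition.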
# [15] = Validation screen for small molecules that induce genotoxicity in human embryonic kidney (HEK293T) cells expressing luciferase-tagged ELG1 (AID 493106); details: luminescence; further: potency means the concentration at half of the fitted maximal effect
# How it was run: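 ELG1-luciferase reporter readout (ONE-Glo, 30 min, room temperature) after 16 hr compound treatment at 37 °C of HEK293T cells at 2,000 per well. Rising luminescence flags genotoxic stress.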
# [16] = molecular target: Estrogen receptor (Homo sapiens) (UniProt P03372); experiment: qHTS assay for small molecule antagonists of estrogen receptor alpha signaling (AID 588513; active means well fitted curve in the direction sought with a large enough effect in the signal ratio, with a control signal flat, not every such curve was filed as active; inconclusive means small, poorly fitted or top-dose-only effect, or effect the other way, or a change in a side signal; inactive means no such curve, though single readings can be large or run the other way; the % refers to the signal ratio; further: on the % scale 0 is the no-effect control and ±100 the full control effect); details: ER-alpha-UAS-bla HEK293, beta-lactamase ratio, antagonist mode; activity, negative = inhibition: at 76.9 µM (top of the series)
# How it was run: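 ER-alpha-UAS-bla GripTite HEK 293 cells in 2% charcoal/dextran-treated FBS medium; compounds titrated (1:2, duplicate), then stimulated with 0.5 nM 17-beta-estradiol for 18 h at 37C. CCF4 beta-lactamase fluorescence; Hill-fit IC50 and efficacy.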
# [17] = molecular target: Bile acid receptor (Homo sapiens) (UniProt Q96RI1); experiment: qHTS assay for small molecule agonists of farnesoid X receptor signaling (AID 588527; calls by dose curve;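 further: 0% = vehicle basal and 100% = reference agonist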); details: HEK293T FXR-UAS-bla, beta-lactamase ratio, 16 h; activation: stronger effect = higher value
# How it was run: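 Quantitative HTS used FXR-UAS-bla HEK293T cells with 16 h compound incubation at 37 C. EC50 values came from concentration-response curves normalized to chenodeoxycholic acid.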
# [18] = molecular target: Retinoic acid receptor RXR-alpha (Homo sapiens) (UniProt P19793); experiment: qHTS assay for small molecule agonists of retinoid X receptor alpha signaling (AID 588544; calls by dose curve;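 further: 0% = DMSO basal wells and 100% = reference agonist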); details: HEK293T RXRa-UAS-bla, beta-lactamase reporter, 18 h; activation: at 76.7 µM (top of the series)
# [19] = molecular target: Tumor necrosis factor (Homo sapiens) (UniProt P01375); experiment: qHTS assay to identify small molecules that stimulate Tumor Necrosis Factor-alpha (TNF-alpha) secretion (AID 651757; active means well fitted curve in the direction sought with a large enough effect in the signal ratio; inconclusive means small, poorly fitted or top-dose-only effect, or a change in a side signal; inactive means no such curve, though single readings can be large or run the other way; the % refers to the signal ratio; further: 0% is about no effect); details: Human cells, HTRF 665/615 ratio; activation (TNF-alpha secretion): at 92.2 µM (top of the series)
# How it was run: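 Secreted TNF-alpha quantified by TR-FRET sandwich of two labeled anti-TNF-alpha antibodies, incubated 3 hr at room temperature. Preceded by 17 hr, 37 C compound treatment of THP-1 cells at 3000 cells/well.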
# [20] = molecular target: Tyrosine-protein phosphatase non-receptor type substrate 1 (Homo sapiens) + Leukocyte surface antigen CD47 (Homo sapiens) (UniProt P78324+Q08722); experiment: CD47-SIRPalpha protein protein interaction - LANCE assay qHTS validation (AID 1347057; active means well fitted curve in the direction sought with a large enough effect in the signal ratio, with a control signal flat, not every such curve was filed as active; inconclusive means small, poorly fitted or top-dose-only effect, or effect the other way, or a change in a side signal; inactive means no such curve, though single readings can be large or run the other way; the % refers to the signal ratio; further: 0% is about no effect)
# How it was run: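 Inhibition of soluble CD47/SIRPalpha ectodomain association by titrated compounds, measured as 665/615 nm time-resolved FRET ratio after sequential 30 min room-temperature incubations.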
# Tags describe the fitted curve by direction and shape.
# UniProt P19793, sequence (P19793 whole entry, looked up): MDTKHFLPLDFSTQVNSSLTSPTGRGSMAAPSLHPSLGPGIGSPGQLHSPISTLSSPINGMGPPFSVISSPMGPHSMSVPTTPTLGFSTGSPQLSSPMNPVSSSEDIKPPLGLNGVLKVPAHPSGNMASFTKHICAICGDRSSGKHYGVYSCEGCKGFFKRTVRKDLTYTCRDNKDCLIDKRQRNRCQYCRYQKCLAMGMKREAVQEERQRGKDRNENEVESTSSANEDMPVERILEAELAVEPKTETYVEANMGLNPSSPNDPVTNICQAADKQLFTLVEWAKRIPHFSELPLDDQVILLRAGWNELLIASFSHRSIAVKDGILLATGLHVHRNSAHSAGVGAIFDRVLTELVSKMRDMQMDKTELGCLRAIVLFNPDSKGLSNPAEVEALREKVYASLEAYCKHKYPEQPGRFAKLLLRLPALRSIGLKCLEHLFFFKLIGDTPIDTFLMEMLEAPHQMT
# UniProt P03372, sequence (P03372 whole entry, looked up): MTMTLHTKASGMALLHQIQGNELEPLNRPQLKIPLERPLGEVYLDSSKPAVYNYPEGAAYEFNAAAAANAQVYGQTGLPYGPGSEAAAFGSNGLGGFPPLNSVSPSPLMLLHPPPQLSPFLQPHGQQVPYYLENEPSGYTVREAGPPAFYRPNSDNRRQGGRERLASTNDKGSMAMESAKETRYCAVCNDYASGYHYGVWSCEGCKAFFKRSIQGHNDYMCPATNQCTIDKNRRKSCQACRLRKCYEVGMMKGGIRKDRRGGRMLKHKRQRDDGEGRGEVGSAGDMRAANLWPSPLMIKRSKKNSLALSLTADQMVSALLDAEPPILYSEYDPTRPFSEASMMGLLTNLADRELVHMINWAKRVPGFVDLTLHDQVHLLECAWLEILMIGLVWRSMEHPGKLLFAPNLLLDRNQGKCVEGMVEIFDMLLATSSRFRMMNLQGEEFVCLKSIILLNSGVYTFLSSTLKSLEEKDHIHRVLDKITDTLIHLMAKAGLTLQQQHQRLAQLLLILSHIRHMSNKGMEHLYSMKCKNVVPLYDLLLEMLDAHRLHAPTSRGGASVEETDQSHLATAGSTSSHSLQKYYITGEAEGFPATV
# UniProt Q96RI1, sequence (Q96RI1 whole entry, looked up): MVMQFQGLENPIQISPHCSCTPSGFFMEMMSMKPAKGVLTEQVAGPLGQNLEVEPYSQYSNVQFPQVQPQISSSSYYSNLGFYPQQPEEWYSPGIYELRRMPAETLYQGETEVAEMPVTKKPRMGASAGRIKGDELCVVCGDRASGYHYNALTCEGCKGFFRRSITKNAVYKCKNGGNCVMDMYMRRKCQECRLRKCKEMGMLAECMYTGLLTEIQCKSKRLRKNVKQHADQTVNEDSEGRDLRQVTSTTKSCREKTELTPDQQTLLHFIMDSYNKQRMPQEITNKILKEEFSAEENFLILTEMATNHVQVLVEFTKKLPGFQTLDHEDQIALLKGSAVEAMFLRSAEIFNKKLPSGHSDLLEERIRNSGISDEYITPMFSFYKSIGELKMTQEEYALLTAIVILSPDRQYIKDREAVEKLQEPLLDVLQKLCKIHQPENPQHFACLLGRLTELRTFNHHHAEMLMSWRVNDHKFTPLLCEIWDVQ
# UniProt P78324, sequence (P78324 whole entry, looked up, the tested form may be a part): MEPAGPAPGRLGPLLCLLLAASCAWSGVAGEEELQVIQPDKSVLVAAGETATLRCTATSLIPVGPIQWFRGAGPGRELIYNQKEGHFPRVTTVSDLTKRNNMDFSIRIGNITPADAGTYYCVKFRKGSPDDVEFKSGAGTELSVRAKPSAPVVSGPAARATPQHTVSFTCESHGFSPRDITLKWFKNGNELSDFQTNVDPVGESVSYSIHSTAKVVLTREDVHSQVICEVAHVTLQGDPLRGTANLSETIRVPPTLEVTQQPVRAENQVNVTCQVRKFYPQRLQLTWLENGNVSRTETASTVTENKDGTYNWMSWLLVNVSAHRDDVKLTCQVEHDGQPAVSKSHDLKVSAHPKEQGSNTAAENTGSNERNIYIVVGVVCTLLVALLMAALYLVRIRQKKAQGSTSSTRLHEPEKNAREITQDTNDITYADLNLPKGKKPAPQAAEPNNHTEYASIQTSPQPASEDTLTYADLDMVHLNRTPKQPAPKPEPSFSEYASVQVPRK
# UniProt P78324, sequence (Q08722 whole entry, looked up, the tested form may be a part): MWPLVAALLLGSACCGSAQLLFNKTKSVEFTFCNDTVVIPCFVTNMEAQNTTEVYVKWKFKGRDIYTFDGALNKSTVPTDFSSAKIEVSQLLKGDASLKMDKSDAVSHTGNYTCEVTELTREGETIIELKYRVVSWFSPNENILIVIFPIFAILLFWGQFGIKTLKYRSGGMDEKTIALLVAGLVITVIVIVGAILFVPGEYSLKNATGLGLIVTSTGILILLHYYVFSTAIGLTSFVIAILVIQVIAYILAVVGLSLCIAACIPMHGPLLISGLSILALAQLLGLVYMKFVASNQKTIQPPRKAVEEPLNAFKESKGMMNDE
# UniProt P13267, sequence (P13267 whole entry, looked up): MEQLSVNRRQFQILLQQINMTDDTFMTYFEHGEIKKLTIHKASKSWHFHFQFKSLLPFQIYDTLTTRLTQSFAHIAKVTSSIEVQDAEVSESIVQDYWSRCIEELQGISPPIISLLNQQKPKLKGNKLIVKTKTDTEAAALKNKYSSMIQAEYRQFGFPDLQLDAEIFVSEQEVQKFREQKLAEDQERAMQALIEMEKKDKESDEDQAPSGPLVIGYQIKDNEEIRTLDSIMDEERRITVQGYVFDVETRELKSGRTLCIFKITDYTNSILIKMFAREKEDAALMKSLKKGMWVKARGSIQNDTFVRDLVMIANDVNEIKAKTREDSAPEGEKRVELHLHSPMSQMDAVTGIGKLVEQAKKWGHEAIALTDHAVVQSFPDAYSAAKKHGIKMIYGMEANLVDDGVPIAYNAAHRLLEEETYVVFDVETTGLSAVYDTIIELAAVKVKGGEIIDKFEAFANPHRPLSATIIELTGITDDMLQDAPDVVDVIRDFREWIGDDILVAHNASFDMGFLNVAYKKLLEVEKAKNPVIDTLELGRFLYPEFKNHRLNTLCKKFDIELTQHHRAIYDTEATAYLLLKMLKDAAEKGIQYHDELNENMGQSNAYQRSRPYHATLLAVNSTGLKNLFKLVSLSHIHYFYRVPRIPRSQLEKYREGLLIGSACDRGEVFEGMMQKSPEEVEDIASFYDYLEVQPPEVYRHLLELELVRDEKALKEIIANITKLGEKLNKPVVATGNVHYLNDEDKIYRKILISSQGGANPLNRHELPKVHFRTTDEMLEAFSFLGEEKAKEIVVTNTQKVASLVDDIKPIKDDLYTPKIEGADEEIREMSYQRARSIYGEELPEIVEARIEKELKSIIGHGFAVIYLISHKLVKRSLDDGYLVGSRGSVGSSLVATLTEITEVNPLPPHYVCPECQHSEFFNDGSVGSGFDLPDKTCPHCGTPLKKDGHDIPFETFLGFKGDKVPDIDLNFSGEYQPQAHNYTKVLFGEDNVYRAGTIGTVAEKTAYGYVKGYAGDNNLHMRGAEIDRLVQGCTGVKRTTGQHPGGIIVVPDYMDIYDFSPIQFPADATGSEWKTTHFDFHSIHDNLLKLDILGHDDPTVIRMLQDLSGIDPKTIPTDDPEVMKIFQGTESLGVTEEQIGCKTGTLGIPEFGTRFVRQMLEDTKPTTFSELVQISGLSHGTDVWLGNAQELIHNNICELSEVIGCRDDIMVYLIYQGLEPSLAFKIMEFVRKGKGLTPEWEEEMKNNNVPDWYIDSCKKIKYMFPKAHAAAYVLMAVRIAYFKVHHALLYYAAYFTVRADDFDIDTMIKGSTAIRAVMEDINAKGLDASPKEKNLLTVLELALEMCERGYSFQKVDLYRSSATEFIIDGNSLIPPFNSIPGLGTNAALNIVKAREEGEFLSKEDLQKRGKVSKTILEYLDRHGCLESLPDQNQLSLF
# UniProt P01375, sequence (P01375 whole entry, looked up): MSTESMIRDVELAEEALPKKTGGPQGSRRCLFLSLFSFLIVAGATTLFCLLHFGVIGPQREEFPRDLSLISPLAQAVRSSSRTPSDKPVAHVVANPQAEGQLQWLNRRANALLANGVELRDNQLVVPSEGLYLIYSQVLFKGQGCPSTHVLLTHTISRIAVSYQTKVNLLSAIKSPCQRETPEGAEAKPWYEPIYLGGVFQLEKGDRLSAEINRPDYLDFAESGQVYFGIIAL
SMILES,Potency [1],activation [2],max response [3],Potency [4],Potency [5],Potency [6],Potency [7],Potency [8],Potency [9],Potency [10],"ratio change, both ways [11]",Potency [12],Potency [13],Potency [14],Potency [15],Potency [16],activation [17],Potency [18],Potency [19],Potency [20]
Cc1ccccc1C(OCCN(C)C)c1ccccc1 (stereo not given),"inconclusive: 7.08 µM [inhibitor, partial curve]",inconclusive: 70.9%,inactive: -11.6%,"inconclusive: 70.8 µM [cytotoxic, single point]","inconclusive: 0.332 µM [cytotoxic, full curve, poor fit]",inconclusive: 0.001 µM,"inconclusive: 37.2 µM [cytotoxic, single point]",inactive,"inconclusive: 0.0037 µM [rising, full curve, poor fit]",–,–,–,–,–,–,–,–,–,–,–
O=c1[nH]c(=O)n([C@H]2C[C@H](O)[C@@H](CO)O2)cc1Br,–,–,–,–,–,–,–,–,–,inactive: > 92 µM,inconclusive: 9.43% [at 46.1 µM],"inconclusive: 13.1 µM [falling, single point]",inactive,inactive,"inconclusive: 20.6 µM [activator, partial curve, poor fit]",inactive,inactive: -3.6%,inactive,inactive,inactive

# Source: PubChem BioAssay (NCATS)
